Among the data in PubChem BioAssay AID894 (National Center for Advancing Translational Sciences (NCATS), 2007) are Potency and activity change, negative = inhibition values, retold here.

The structures appear in SMILES notation. Several values for one entry are separate records, joined by “and”; a condition that tells them apart may be missing. Equal values may be shown once. Out of some 150,000 compounds screened, about 6,500 (4.3%) were called active. Roughly 12% stayed inconclusive and do not appear here. Calls come from the whole dose curve; as a rule, active = well fitted inhibition curve with a large enough effect (not every such curve was filed as active); inconclusive = small, poorly fitted or top-dose-only effect, or another doubt; inactive = no such curve, though single readings can be large or run the other way. The entries are a selection whose mix differs from that of the whole data set. The source holds several records for some structures; these can differ, active in one and inactive in another.
% is set by controls: 0 for no effect and ±100 for the full control effect; potency is the fitted concentration of half-maximal effect.

This assay concerns the target 15-hydroxyprostaglandin dehydrogenase [NAD(+)] (Homo sapiens) (UniProt P15428). Put plainly: qHTS Assay for Inhibitors of HPGD (15-Hydroxyprostaglandin Dehydrogenase). Particulars: purified HPGD, NADH fluorescence kinetic, PGE2 substrate; activity change, negative = inhibition: stronger effect = lower value. The method in brief: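 NADH formation kinetics: reaction with 30 uM PGE2 and 1 mM NAD+ (final), 20 nM enzyme, Tris-HCl pH 8 with Tween 20, after 15 min compound preincubation at room temperature. Fluorescence change, last versus first of five reads.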
Sequence of UniProt P15428 (P15428 whole entry, looked up): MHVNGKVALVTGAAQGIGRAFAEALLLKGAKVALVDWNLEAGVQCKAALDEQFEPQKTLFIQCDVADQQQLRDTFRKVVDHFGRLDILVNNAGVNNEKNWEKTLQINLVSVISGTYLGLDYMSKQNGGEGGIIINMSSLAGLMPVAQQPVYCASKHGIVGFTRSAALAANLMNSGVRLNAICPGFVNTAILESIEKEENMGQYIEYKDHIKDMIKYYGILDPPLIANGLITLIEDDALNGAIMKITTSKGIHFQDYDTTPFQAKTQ
For the molecule `CCNC(=O)CCS(=O)(=O)c1ccc2ccccc2c1`, the Potency was active: 31.6 µM.

Consider `C#CCn1c(=NC(=O)c2ccc(Br)s2)sc2cccc(OC)c21`, for which the activity change, negative = inhibition was inactive: 254%. `O=c1nc2s/c(=C\c3ccc(-c4ccccc4[N+](=O)[O-])o3)c(=O)n2nc1-c1ccccc1`: the Potency is active: 7.94 µM. Regarding `CC(C)Cn1c(N)c(C(=O)COC(=O)c2cc(C3CC3)nc3ccccc23)c(=O)n(C)c1=O`, the activity change, negative = inhibition is inactive: -27.6%. Consider `Cc1ccc2c(c1)Sc1ccccc1CC2=O`, for which the Potency is active: 25.1 µM. The same measure, in the same setting: the result for `Cc1ccc(N/N=C(\C#N)C(N)=S)c(C)c1` reads active: 14.1 µM.

With `CC(=O)Oc1ccccc1C(=O)O`, the activity change, negative = inhibition is inactive: -7.33% and inactive: -17.7%. As for `Cn1cc(C(F)(F)F)nc1-c1ccc(OC[C@@H](O)CNCCOc2ccc(O)c(C(N)=O)c2)cc1`, the activity change, negative = inhibition was inactive: -16.2%. On to `Cc1ccnc(NC(=O)c2ccc([N+](=O)[O-])o2)c1`, for which the activity change, negative = inhibition is inactive: 284%. Still for that read-out and setting: for `Cc1onc(-c2ccccc2Cl)c1C(=O)N[C@H]1C(=O)N2[C@H]1SC(C)(C)[C@H]2C(=O)O` the value was inactive: -0.4%; for `Nc1cccc(-c2cc(-c3ccccc3)nc(-c3cccc(N)c3)n2)c1`, inactive: 30.6%. Turning to `CCOc1ccc(-c2n[nH]c(C)c2-c2ccccc2OC)c(O)c1`, the activity change, negative = inhibition is inactive: 67.6%. On to `COc1c(Cl)cc(C(=O)Nc2ccccc2C(=O)O)cc1Cl`, for which the Potency is active: 14.1 µM. On the same count and under the same terms, for `CCCCNC(=S)Nc1cccc(C(C)=O)c1` the value was active: 31.6 µM.

As to `CCCn1c(=O)[nH]c(=O)c2[nH]cnc21`, the activity change, negative = inhibition is inactive: -17.8%. Same read-out and setting: the result for `O=C(O)c1cn(C2CC2)c2cc(N3CCNCC3)c(F)cc2c1=O` reads inactive: -15.5%. Turning to `CCN(CC)S(=O)(=O)c1ccc2oc(C(=O)Nc3ccc(OC)cc3OC)c(C)c2c1`, the activity change, negative = inhibition is inactive: 542%. Take `Cc1nc2ccc(NC(=O)c3ccc(S(=O)(=O)N4CCOCC4)cc3)cc2s1`: the activity change, negative = inhibition is inactive: 68%. For `CC1=Nn2c(nnc2-c2ccccc2Cl)SC1`, the Potency is active: 25.1 µM. As for `COc1ccccc1-c1c(C)nn2c(N3CCN(c4ccccc4OC)CC3)cc(C)nc12`, the activity change, negative = inhibition was inactive: 85.3%. As to `O=C(Nc1ccc(S(=O)(=O)N2CCN(c3ccccc3)CC2)cc1)c1cccs1`, the activity change, negative = inhibition was inactive: 269%. On the same count and under the same terms, the result for `C[C@@H](C(=O)O)c1cccc(C(=O)c2ccccc2)c1` reads inactive: -6.84%; that for `CCc1nc(NCC(C)C)c(C#N)c2c1COC(C)(C)C2`, inactive: 89.2%. In the case of `Cn1c(=O)cc(SCC(=O)NCCC2=CCCCC2)c2ccccc21`, the Potency is active: 7.08 µM. On to `Oc1c(Cl)cc(Cl)c(Cl)c1Cc1c(O)c(Cl)cc(Cl)c1Cl`, for which the activity change, negative = inhibition is inactive: -15.8% and inactive: -6.53%.

For `COC(=O)[C@@H]1C2CC3c4[nH]c5cc(OC)ccc5c4CCN3CC2C[C@H](OC(=O)c2cc(OC)c(OC)c(OC)c2)C1OC` (some centres not stated), the activity change, negative = inhibition is inactive: -19.4%. As to `CCOC(=O)c1cc2ccc(OC(=O)c3ccco3)cc2oc1=O`, the activity change, negative = inhibition was inactive: 91.3%.

Take `C/C=C(\C)C(=O)OC1c2c(ccc3ccc(=O)oc23)OC(C)(C)C1OC(C)=O` (configuration not stated): the activity change, negative = inhibition is inactive: -5.42% and inactive: -15.1%. `CCCc1c(OCC(O)COc2ccc3c(=O)cc(C(=O)O)oc3c2CCC)ccc(C(C)=O)c1O` (configuration not stated): the Potency was active: 17.8 µM. In the case of `O=c1c(O)c(-c2ccc(O)cc2O)oc2cc(O)cc(O)c12`, the activity change, negative = inhibition was inactive: -15.9% and inactive: -24.4%.

As for `O=c1c2ccccc2oc2nc(-c3ccco3)n(-c3ccccc3)c(=O)c12`, the activity change, negative = inhibition is inactive: 30.2%. On to `O=C(Nc1nccs1)c1ccc(COc2ccc(F)cc2)o1`, for which the Potency was active: 14.1 µM. Consider `Cc1cc2nc3c(=O)[nH]c(=O)nc-3n(CC(O)C(O)C(O)CO)c2cc1C` (configuration not stated), for which the activity change, negative = inhibition is inactive: -13.8% [middle of 4 runs]. As to `COc1ccc(/C=C2/CCc3ccccc3C2=O)cc1OC`, the activity change, negative = inhibition is inactive: -15.8%.

With `COc1ccc(/C=C2\SC(=O)NC2=S)cc1OC`, the Potency was active: 15.8 µM.

`CCOC(=O)c1c(C)nc2sc3c(c2c1-c1ccc(OC)cc1)NC(c1ccccc1)NC3=O` (configuration not stated): the activity change, negative = inhibition is inactive: 121%. Turning to `CN(C)c1ccc(/C=C2/C(=O)Nc3ccccc32)cc1`, the activity change, negative = inhibition is inactive: -24%. Turning to `CC(=O)N1[C@H](Cc2ccccc2)C=C[C@]1(C)C(=O)NCc1ccc(C)o1`, the activity change, negative = inhibition was inactive: -12.5%. On the same count and under the same terms, the result for `COc1ccc(/C=C2\CCCC3C2=NN(C(=O)c2scnc2C)C3c2ccc(OC)c(OC)c2)cc1OC` (configuration not stated) reads inactive: 95.9%; that for `N#C/C(=C\c1ccco1)c1nc2ccccc2s1`, inactive: -19.1%.

Take `CCCNC(C)C(=O)Nc1ccccc1C` (configuration not stated): the activity change, negative = inhibition is inactive: 1.15%. On to `CCCCC[C@H](O)/C=C/[C@@H]1[C@@H](C/C=C\CCCC(=O)O)[C@@H](O)C[C@H]1O`, for which the activity change, negative = inhibition is inactive: -7.67%. The same measure, in the same setting: for `CCN1/C(=C\C(C)=O)Sc2ccc(OC)cc21` the value was inactive: -4.3%. For the molecule `Cc1ccc2c(c1)C1C=CCC1C(C(=O)O)N2` (configuration not stated), the Potency was active: 20 µM. In the case of `COc1ccc(OC)c(-n2cnc3cc(C(=O)NCCCN4CCOCC4)ccc32)c1`, the Potency was active: 25.1 µM.

For `Cc1cc(CNC(=O)C(C)Cc2ccccc2)nn1C` (configuration not stated), the activity change, negative = inhibition is inactive: -16.8%. With `c1ccc(Cc2nnc(N3CCOCC3)c3ccccc23)cc1`, the Potency was active: 25.1 µM. As for `CCCN1C2=C(C(=O)CC(C)(C)C2)C(c2ccc(F)cc2)C2=C1c1ccccc1C2=O` (configuration not stated), the Potency was active: 35.5 µM. As to `COc1cc(OC)cc(C(=O)NCCSCc2ccco2)c1`, the Potency was active: 20 µM. Consider `Cc1ccc(C)c(NC(=O)/C(C#N)=C/c2cn(CC(=O)NCc3ccco3)c3ccccc23)c1`, for which the activity change, negative = inhibition was inactive: 56%. As for `S=c1[nH]nc(COc2ccccc2)n1C1CCCCC1`, the Potency was active: 22.4 µM. Turning to `Cc1cccc(/C=C/c2ccccc2)n1`, the activity change, negative = inhibition was inactive: -4.59%. Consider `Oc1c(I)cc(I)c2cccnc12`, for which the activity change, negative = inhibition is inactive: -15.4%. Take `Cc1ccc(NC(=O)N2CCC(c3nc4c(nnn4Cc4c(F)cccc4Cl)c(=O)[nH]3)CC2)cc1`: the Potency is active: 12.6 µM. With `Cn1nnnc1SCC1=C(C(=O)O)N2C(=O)[C@@H](NC(=O)[C@H](O)c3ccccc3)[C@H]2SC1`, the activity change, negative = inhibition is inactive: -16.4%. With `O=C(O)CC[C@@H](C(=O)O)N1C(=O)c2ccccc2C1=O`, the activity change, negative = inhibition was inactive: -4.44%. For `Nc1nc(SCc2ccc([N+](=O)[O-])cc2)c2ncn(C3OC(CO)C(O)C3O)c2n1` (configuration not stated), the activity change, negative = inhibition was inactive: -23.1%. `CC1=C(/C=C/C(C)=C/C=C/C(C)=C/C(=O)Nc2ccc(O)cc2)C(C)(C)CCC1`: the activity change, negative = inhibition was inactive: -12.1% and inactive: -9.23% and inactive: -9.18%. For the molecule `O=C1C2C3C=CC(CC3)C2C(=O)N1/N=C/c1ccc(O)cc1` (configuration not stated), the Potency was active: 28.2 µM.

For `CN(C)[C@H]1C(=O)C(C(=O)NCN2CCCC2)=C(O)[C@]2(O)C(=O)C3=C(O)c4c(O)cccc4[C@@](C)(O)[C@H]3C[C@@H]12`, the activity change, negative = inhibition is inactive: -20.4%. On to `COc1ccc(C(=O)OCCNC(=O)c2c(Cl)nc3ccccn23)cc1`, for which the Potency is active: 25.1 µM. Consider `NC(=O)c1cc[n+](CC2=C(C(=O)O)N3C(=O)[C@@H](NC(=O)C(c4ccccc4)S(=O)(=O)[O-])[C@H]3SC2)cc1` (some centres not stated), for which the activity change, negative = inhibition was inactive: -14.4%. With `NCC(O)c1ccc(O)c(O)c1` (configuration not stated), the activity change, negative = inhibition is inactive: 4.61%.

As for `Cn1c(Cc2ccccc2)nnc1SCC(=O)c1ccc(Br)s1`, the Potency was active: 28.2 µM. As to `O=C(CCCCCN1C(=O)CCC1=O)Nc1ccc2c(c1)OCO2`, the activity change, negative = inhibition is inactive: -0.42%. As to `Cc1cccc(Nc2cc(Cl)nc(SCC(=O)O)n2)c1C`, the activity change, negative = inhibition is inactive: -21.6% and inactive: -5.55% and inactive: -14.5%. For `O=C(Nc1cccc2nsnc12)c1cccs1`, the activity change, negative = inhibition was inactive: -23.3%.

`Cc1nn(-c2ccccc2)c(N2CCCC2)c1/C=N/n1cnc2scc(-c3ccccc3)c2c1=O`: the activity change, negative = inhibition was inactive: 402%. With `Cn1c(N)c(C(=O)Nc2ccc3ccccc3c2)sc1=S`, the Potency was active: 8.91 µM. On to `CCN(CC)CCCC(C)Nc1c2ccc(Cl)cc2nc2ccc(OC)cc12` (configuration not stated), for which the activity change, negative = inhibition was inactive: -22%.

Regarding `COc1ccc(/C=C/c2cc(OC)cc(=O)o2)cc1`, the activity change, negative = inhibition is inactive: -17%. On to `COc1cc(C=O)ccc1O`, for which the activity change, negative = inhibition is inactive: -15.1%. Regarding `O=C(CSc1nnc2ccccn12)c1ccccc1`, the activity change, negative = inhibition was inactive: 78.8%. Take `O=Cc1ccc(Sc2nnc(-c3ccccc3)o2)c([N+](=O)[O-])c1`: the Potency was active: 14.1 µM. Same read-out and setting: for `CC1CCN(C(=O)/C=C/c2ccc(C(C)(C)C)cc2)CC1` the value was active: 15.8 µM. Turning to `CCCN=C(C)c1c(-c2ccccc2)[nH]n(-c2nc3ccccc3s2)c1=O`, the activity change, negative = inhibition is inactive: 156%. As for `O=C(c1ccc(CSc2nc3ccncc3[nH]2)cc1)N1CCCCC1`, the Potency is active: 0.562 µM.

For `COc1ccc(/C=N/n2cnnc2)cc1COc1ccccn1`, the activity change, negative = inhibition was inactive: -13.3%.

Take `Cn1nnc2cc(C(=O)N3CCSCC3)ccc21`: the Potency was active: 1.58 µM. In the case of `Cc1ccc(O)c(-c2cc(C(=O)NCc3ccncc3)[nH]n2)c1`, the Potency was active: 5.01 µM. On to `CN(C)c1ccc(O)c2c1CC1CC3[C@@H](N(C)C)C(=O)C(C(N)=O)=C(O)[C@]3(O)C(=O)C1=C2O` (some centres not stated), for which the activity change, negative = inhibition was inactive: -12.3%.

Regarding `CCOCCn1c(=NC(=O)/C=C/c2ccccc2Cl)sc2cc(NC(C)=O)ccc21`, the activity change, negative = inhibition is inactive: 79.2%.
